Measurements taken from paper PMC12040169 (PLOS Biology, 2025).
The list shows a part of the results.

Tested on: T1, C. trachomatis L2/434/Bu expressing GFP (CTL2-GFP)
T1 construct: L2/434/Bu GFP intracellular growth in HeLa cells
Parameters: species or system HeLa; C. trachomatis total inclusion area by high-content imaging, normalised to DMSO
Settings: total inclusion area; 28.5 h, 10 µM; inhibitor
Outline: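 Post-fluorescence-read fixation, DNA staining with Hoechst and high-content imaging; GFP inclusion area and number per well, and nuclei counts, used as proxies for bacterial growth and host viability.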

SMILES	% of control remaining
Cc1ccc(NS(=O)(=O)c2ccc(OCC(=O)Nc3ccccc3C(F)(F)F)cc2)cc1 [CBK269120]	117.027
NC(=O)C1CCN(C2CC(=O)NC2=O)CC1 (stereo not shown) [CBK263290]	102.846
Cc1nc2nc(N)nn2c(C)c1CCC(=O)NCCc1ccccc1 [CBK304989]	59.0833
O=C(Nc1ccccc1)c1ccc(-c2ccccc2)cc1 [CBK261346]	98.9579
Cc1cc(C(=O)N(CCC#N)Cc2cccs2)no1 [CBK057316]	90.24
CC(=O)Nc1ccc(C(=O)CSc2nc(-c3ccccc3)c(-c3ccccc3)o2)cc1 [CBK266168]	103.455
O=c1[nH]c2ncc(-c3ccoc3)nc2n1C1CCOCC1 [CBK064973]	106.736
CCN(CC)Cc1cc(C(C)(C)C)oc1C(=O)O [CBK266013C]	117.023
CCCn1cc(C(=O)NCC2CCN(c3ccccc3F)C2)c(C)n1 (stereo not shown) [CBK304634]	35.1272
CS(=O)(=O)Nc1cc2ccccc2c(-c2ccc(OCc3ccccc3)c(F)c2)n1 [CBK073785]	83.3699
CN(C)c1nc(NCc2ccccc2)nc(SCC(=O)Nc2ccc(Cl)c(Cl)c2)n1 [CBK267289]	83.5886
COc1ccc(CCNC(=O)N2CCCC(C(=O)O)C2)cc1 (stereo not shown) [CBK161367]	21.9264
O=c1cc2ncc(-c3ccncc3)cn2[nH]1 [CBK011300]	61.0143
Cc1cccc(NC(=O)c2cnc3scc(C)n3c2=O)c1 [CBK287453]	100.36
COc1nccnc1OC1CCN(CCOc2ccccc2)CC1 [CBK084260]	69.4148
COc1ccccc1CN(CCCn1ccnc1)Cc1cccn1C [CBK283160]	94.6657
Cc1ccccc1NC(=O)N1CCC2(CC1)NCCc1c2[nH]c2ccc(O)cc12 [CBK046904]	108.819
NC(=O)c1c(NC(=O)/C=C/c2c(F)cccc2Cl)sc2c1CCCCCC2 [CBK262631]	111.233
Cc1ccc(S(=O)(=O)NC[C@H]2CC[C@H](C(=O)O)CC2)cc1 [CBK286706]	86.012
CC(=O)NCCn1cc2c(n1)[C@H]1CN(C(=O)C(C)(C)C)C[C@H]1CC2 [CBK282168]	128.925

SMILES	% of control remaining
COc1ccc(CN2CCNC(=O)C2CC(=O)O)cc1OC (stereo not shown) [CBK269991]	73.6699
CCN(CC)C(=O)C1CCCN(C(=O)NCCOC)C1 (stereo not shown) [CBK156129]	77.1671
O=c1c2ccccc2nc2n1CCN(Cc1ccc(F)cc1)CC2 [CBK284814]	95.606
Cc1cccc(C(=O)Oc2ccc(-n3ccnc3)cc2)c1 [CBK090137]	92.7687
CC(=O)N1C[C@H]2CCCN(S(=O)(=O)c3ccc(Cl)s3)[C@H]2C1 [CBK285293]	98.4002
Cc1nc(S(=O)(=O)CCn2cccn2)n(C2CCCC2)c1C [CBK305138]	106.401
Cc1ccc2c(c1)N(CCO)/C(=C/c1sc3ccccc3[n+]1CCCS(=O)(=O)[O-])S2 [CBK293965]	64.3351
COc1ccc(-c2nnc3ccc(SCC(=O)N4CCCC4)nn23)cc1OC [CBK287527]	95.5868
O=[N+]([O-])c1cc(S(=O)(=O)Nc2nnc(C(F)(F)F)s2)ccc1Cl [CBK062021]	93.6424
CCCNC(=O)Cn1nc(C)n2c(cc3sccc32)c1=O [CBK284020]	104.63
CCN1CCN(c2c(Cl)cccc2NC(=O)CSc2ccc(Cl)cc2)CC1 [CBK267606]	79.2413
COC(=O)c1cccc(C(=O)Nc2ncc(-c3ccccc3)s2)c1 [CBK298294]	91.9562
Cc1[nH]c2cc(C(=O)O)ccc2c1CC(=O)O [CBK269955]	93.6155
O=c1c(-c2ccccc2)c(C(F)(F)F)oc2c(CN3CCN(Cc4ccccc4)CC3)c(O)ccc12 [CBK265808]	81.2068
Cc1cc2ccnc(Cl)c2n1CC1(O)CC2CCC(C1)N2 (stereo not shown) [CBK284980]	110.867
O=C(NS(=O)(=O)c1cccc(-c2nnco2)c1)C1C2C3CCC(C3)C12 (stereo not shown) [CBK306488]	52.0709
CNCC(=O)N1CCC2(CCCC[C@H]3CN(C(C)=O)CC[C@H]3NC(=O)CNC2=O)CC1 [CBK292181]	87.4463
NC(=O)COc1ccc(CNc2ccc(Oc3ccccc3)cc2)cc1Cl [CBK269584]	83.2998
CC1CN(S(=O)(=O)c2ccc(NC(=O)c3nc(SCc4ccccc4)ncc3Cl)cc2)CC(C)O1 (stereo not shown) [CBK268930]	59.0233
CCC(=O)Nc1nc(-c2ccc(C(=O)OC)cc2)nc2c1c(=O)oc1ccccc12 [CBK268449]	94.6254
